# Reference: publication PMC5681660, “Reduced hepatitis B and D viral entry using clinically applied drugs as novel inhibitors of the bile acid transporter NTCP” (Scientific Reports, 2017)
# Assays:
# [1] = target: T1, human NTCP (Homo sapiens, UniProt Q14973); test: Screening taurocholate uptake assay (96-well, [14C]taurocholate, 10 µM drug); conditions: for remaining activity at 10 µM: 10 min, read-out: %NTCP activity
# T1 sequence (Q14973 1-349): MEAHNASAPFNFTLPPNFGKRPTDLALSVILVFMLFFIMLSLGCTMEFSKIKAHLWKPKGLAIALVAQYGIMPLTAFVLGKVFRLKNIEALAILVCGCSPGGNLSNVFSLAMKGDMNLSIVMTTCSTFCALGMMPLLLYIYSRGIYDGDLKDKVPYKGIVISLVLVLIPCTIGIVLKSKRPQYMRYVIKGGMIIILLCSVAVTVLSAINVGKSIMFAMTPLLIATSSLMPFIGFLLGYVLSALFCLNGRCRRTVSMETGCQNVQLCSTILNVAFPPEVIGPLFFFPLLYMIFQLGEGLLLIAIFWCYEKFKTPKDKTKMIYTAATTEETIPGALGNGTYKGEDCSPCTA
# [2] = target: T1, human NTCP; test: Screening fluorescent competitive Myrcludex B-FITC binding assay (96-well, 10 µM drug)
# [3] = Prestwick library screen, [14C]taurocholate uptake, 10 µM drug
# [4] = Prestwick library screen, Myrcludex B-FITC binding, 10 µM drug
# [5] = screen, 10 µM drug, [14C]taurocholate uptake
# [6] = screen, 10 µM drug, Myrcludex B-FITC binding
# [7] = Prestwick library screen, 10 µM drug, [14C]taurocholate uptake
# [8] = Prestwick library screen, 10 µM drug, Myrcludex B-FITC binding
smiles,measurement,setting,value
CC(C)(C(=O)c1cccnc1)c1cccnc1 [Metyrapone],remaining activity at 10 µM,[1],61.6%
same,remaining activity at 10 µM,"[2]; 0.5 h, read-out: %NTCP binding",127%
O=c1cc(-c2ccc(O)c(O)c2)oc2cc(O)cc(O)c12 [Luteolin],remaining activity at 10 µM,[1],100%
same,remaining activity at 10 µM,"[2]; 0.5 h, read-out: %NTCP binding",81.4%
COc1cc(OC)c(C(=O)CCCN2CCCC2)c(OC)c1.Cl [Buflomedil hydrochloride],%NTCP activity,[1]; [3],63.0024%
same,%NTCP binding,[2]; [4],58.8073%
Oc1ccc(OCc2ccccc2)cc1 [Monobenzone],remaining activity at 10 µM,[1],49.5%
same,remaining activity at 10 µM,"[2]; 0.5 h, read-out: %NTCP binding",115%
Cl.Cl.Fc1ccc(C(OCCN2CCN(CCCc3ccccc3)CC2)c2ccc(F)cc2)cc1 [GBR 12909 dihydrochloride],%NTCP activity,[1]; [5],59.478%
same,%NTCP binding,[2]; [6],41.933%
NS(=O)(=O)c1cc(C(=O)O)cc(N2CCCC2)c1Oc1ccccc1 [Piretanide],remaining activity at 10 µM,[1],123%
same,remaining activity at 10 µM,"[2]; 0.5 h, read-out: %NTCP binding",87.7%
Cl.c1cnc(N2CCN(Cc3ccc4c(c3)OCO4)CC2)nc1 [Piribedil hydrochloride],%NTCP activity,[1]; [7],75.4496%
same,%NTCP binding,[2]; [8],91.7024%
CC(C)NC[C@H](O)COc1ccc(CC(N)=O)cc1 [(S)-(-)-Atenolol],%NTCP activity,[1],41.7476%
same,%NTCP binding,[2]; [6],80.7107%
Cn1c(=O)c2c(ncn2C)n(C)c1=O [Caffeine],remaining activity at 10 µM,[1],64.7%
same,remaining activity at 10 µM,"[2]; 0.5 h, read-out: %NTCP binding",76.3%
CCN(CC)C(=O)c1ccc(O)c(OC)c1 [Ethamivan],remaining activity at 10 µM,[1],57.3%
same,remaining activity at 10 µM,"[2]; 0.5 h, read-out: %NTCP binding",106%
CC(=O)CC(c1ccc([N+](=O)[O-])cc1)c1c(O)c2ccccc2oc1=O (centres unmarked) [Acenocoumarol],remaining activity at 10 µM,[1],71.3%
same,remaining activity at 10 µM,"[2]; 0.5 h, read-out: %NTCP binding",75.5%
NC(=O)N1c2ccccc2CC(=O)c2ccccc21 [Oxcarbazepine],remaining activity at 10 µM,[1],42.6%
same,remaining activity at 10 µM,"[2]; 0.5 h, read-out: %NTCP binding",75.2%
Nc1nc(=O)c2c([nH]1)NCC(CNc1ccc(C(=O)N[C@@H](CCC(=O)[O-])C(=O)[O-])cc1)N2C=O.[Ca+2] (some centres unmarked) [Folinic acid calcium salt],%NTCP activity,[1]; [3],106.303%
same,%NTCP binding,[2]; [4],93.8027%
CN(C)CCC(c1ccc(Cl)cc1)c1ccccn1 (centres unmarked) [Chlorpheniramine maleate],remaining activity at 10 µM,[1],31.4%
same,remaining activity at 10 µM,"[2]; 0.5 h, read-out: %NTCP binding",90.3%
CC(C)Oc1ccc2c(=O)c(-c3ccccc3)coc2c1 [Ipriflavone],remaining activity at 10 µM,[1],99.6%
same,remaining activity at 10 µM,"[2]; 0.5 h, read-out: %NTCP binding",93.6%
CC(=O)O[C@]1(C(C)=O)CC[C@H]2[C@@H]3C=C(Cl)C4=CC(=O)[C@@H]5C[C@@H]5[C@]4(C)[C@H]3CC[C@@]21C [Cyproterone acetate],remaining activity at 10 µM,[1],47.9%
same,remaining activity at 10 µM,"[2]; 0.5 h, read-out: %NTCP binding",101%
OC(CCCN1CCCCC1)(c1ccccc1)c1ccccc1 [Diphenidol hydrochloride],remaining activity at 10 µM,[1],30.5%
same,remaining activity at 10 µM,"[2]; 0.5 h, read-out: %NTCP binding",91.5%
Cn1nnc2c(C(N)=O)ncn2c1=O [Temozolomide],remaining activity at 10 µM,[1],119%
same,remaining activity at 10 µM,"[2]; 0.5 h, read-out: %NTCP binding",90.1%
COc1cc([C@@H]2c3cc4c(cc3[C@@H](O[C@@H]3O[C@@H]5CO[C@@H](C)O[C@H]5[C@H](O)[C@H]3O)[C@H]3COC(=O)[C@H]23)OCO4)cc(OC)c1O [Etoposide],remaining activity at 10 µM,[1],70%
same,remaining activity at 10 µM,"[2]; 0.5 h, read-out: %NTCP binding",47.7%
C[C@]12CC[C@H](O)C[C@H]1CC[C@@H]1[C@@H]2CC[C@]2(C)[C@@H](C3=CC(=O)OC3)CC[C@]12O [Digitoxigenin],remaining activity at 10 µM,[1],36.4%
same,remaining activity at 10 µM,"[2]; 0.5 h, read-out: %NTCP binding",58%
CC=CC1=C(C(=O)O)N2C(=O)[C@@H](NC(=O)[C@H](N)c3ccc(O)cc3)[C@H]2SC1 [Cefprozil],%NTCP activity,[1]; [5],129.621%
same,%NTCP binding,[2]; [6],49.2677%
CC(C)(C)NC[C@H](O)COc1ccccc1C1CCCC1 [Penbutolol sulfate],remaining activity at 10 µM,[1],113%
same,remaining activity at 10 µM,"[2]; 0.5 h, read-out: %NTCP binding",83.8%
CCOC(=O)[C@H](CCc1ccccc1)N[C@@H](C)C(=O)N1[C@H](C(=O)O)C[C@@H]2CCC[C@@H]21 [Ramipril],remaining activity at 10 µM,[1],150%
same,remaining activity at 10 µM,"[2]; 0.5 h, read-out: %NTCP binding",94.1%
NC[C@H]1O[C@H](O[C@H]2[C@H](O[C@@H]3O[C@H](CO)[C@@H](O)[C@H]3O)[C@@H](O)[C@H](N)C[C@@H]2N)[C@H](N)[C@@H](O)[C@@H]1O.O=S(=O)(O)O [Ribostamycin sulfate salt],%NTCP activity,[1]; [7],93.127%
same,%NTCP binding,[2]; [8],83.6918%
C=C(C)[C@@H]1[C@H]2OC(=O)[C@@H]1[C@]1(O)C[C@H]3O[C@]34C(=O)O[C@H]2[C@]14C [Picrotoxinin],remaining activity at 10 µM,[1],91.2%
same,remaining activity at 10 µM,"[2]; 0.5 h, read-out: %NTCP binding",87.5%

# Counter-ions that a name gives are not always drawn. Like-named read-outs stand apart in the source and are kept apart here.
